The record followed here is PubChem BioAssay AID1346428 (National Center for Advancing Translational Sciences (NCATS), 2018).

Structures are written as SMILES. “And” between values parts separate entries of the source, which are not always exact repeats. Equal values may be shown once. About 1,200 (2.5%) of roughly 48,000 compounds were called active. Another 2% or so got no clear call; they are omitted.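 How the source made its calls: active means activation of at least 60% and not above a set upper limit (about 1 call in 100 departs from these limits); inconclusive means activation of 40% to 60%, or above that upper limit; inactive means activation under 40%.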 Some of the results follow.

Chain of UniProt O75388 (O75388 whole entry, looked up, the tested form may be a part): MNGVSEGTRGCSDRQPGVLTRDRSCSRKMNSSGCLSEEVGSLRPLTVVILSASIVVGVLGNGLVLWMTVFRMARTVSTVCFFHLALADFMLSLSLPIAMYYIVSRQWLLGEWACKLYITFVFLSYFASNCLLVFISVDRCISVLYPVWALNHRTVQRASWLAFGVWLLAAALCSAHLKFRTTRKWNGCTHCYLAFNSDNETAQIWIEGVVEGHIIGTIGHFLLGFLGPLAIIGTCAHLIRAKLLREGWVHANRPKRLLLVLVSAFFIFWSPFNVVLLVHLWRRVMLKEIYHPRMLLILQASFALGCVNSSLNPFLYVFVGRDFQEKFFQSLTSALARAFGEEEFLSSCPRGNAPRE

The target in the assay is Probable G-protein coupled receptor 32 (Homo sapiens) (UniProt O75388). Put plainly: qHTS for Agonists of Human Resolvin D1 Receptor DRV1. To be noted: CHO-K1 GPR32 beta-arrestin PathHunter luminescence, 90 min; at 76.9 µM; hits give high values; zero percent set by DMSO-only wells. The gist of the method:
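PathHunter enzyme-fragment complementation, CHO-K1 GPR32 stable line; 2,500 cells/well, overnight attach; cpd 90 min 37 °C 5% CO2; detection reagent 1 h RT; chemiluminescence. DMSO = EC0.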
(In general: qHTS replaces the single test concentration by a dilution series.)
Take `CCOc1ccc(NC(=O)Cn2nc(CC)n3c(cc4sccc43)c2=O)cc1`: the activation was inactive: -25.3%.
Then `Cc1ccc2c(c1)c1c(c(=O)n(-c3cccc(Cl)c3)c(=O)n1CC(N)=O)n2C`, with inactive: -4.06%; and `Cc1ccc(NC(=O)CSc2nc3nccnc3c(=O)n2CCc2c[nH]c3ccccc23)cc1C`, with inactive: -5.19%; and `O=C1Nc2ccccc2C1Cc1ccc(Br)cc1` (centres undefined), with inactive: -20.8%.
Then `COc1ccccc1OCCNCC(O)COc1cccc2[nH]c3ccccc3c12` (centres undefined), with inactive: 2.9%; and `Cc1ccc(NC(=O)CN2C(=O)c3ccccc3Sc3ccc(C(=O)N4CCOCC4)cc32)cc1C`, with inactive: -14.9%.
Then `CC1CCc2noc(NC(=O)c3ccc([N+](=O)[O-])cc3)c2C1` (centres undefined), with inactive: -1.41%; and `CCC(=O)N1CCc2cc(S(=O)(=O)NCCC(=O)Nc3ccc(C)cc3C)ccc21`, with inactive: 0.532%; and `Cc1ccccc1OCCSc1nc2ccc(NC(=O)c3ccco3)cc2s1`, with inactive: 6.18%.
On to `CC(=O)c1cccc(NC(=O)c2cc3sc(Cl)cc3n2C)c1`, for which the activation is inactive: 22.3%.
The same measure for `Oc1c(C(c2ccc(Cl)cc2Cl)N2CCN(Cc3ccccc3)CC2)sc2nc(-c3ccco3)nn12` (centres undefined): inactive: -7.8%.
On to `CCCOC(=O)c1c(-c2ccccc2)nc(CC)c(C(=O)SCC)c1CCC`, for which the activation is inactive: -21.5%.
Then `CCCn1c(=N)c(C(=O)NCc2ccco2)cc2c(=O)n3cc(C)ccc3nc21`, with inactive: 19.1%.
Then `CCC(Sc1nc2ccncc2[nH]1)C(=O)Nc1cc(C)ccc1C` (centres undefined), with inactive: -0.343%; and `Cc1ccc(CNC(=O)Cn2ccn(-c3ccc(F)c(F)c3)c(=O)c2=O)cc1`, with inactive: -5.67%.
On to `Cc1ccc(C2N3CC4(C)CN2CC(c2ccccc2)(C3)C4=O)cc1` (centres undefined), for which the activation was inactive: -0.337%.
As for `CCn1cc(/C=C(\NC(=O)c2ccccc2Cl)C(=O)NCCCn2ccnc2)c2ccccc21`, the activation was inactive: 21.8%.
For `COCCNC(=O)CCCn1c(SCc2ccccc2C)nc2c(sc3ccccc32)c1=O`, the activation was inactive: -27.9%.
The same measure for `CC(C)c1nc(CN(C)C(=O)N[C@H](C(=O)N[C@@H](Cc2ccccc2)C[C@H](O)[C@H](Cc2ccccc2)NC(=O)OCc2cncs2)C(C)C)cs1`: inactive: -10.7%.
Then `Cc1ccc(CNC(=O)c2ccc(N3Cc4ccccc4Oc4ncccc43)s2)cc1`, with inactive: -17.5%; and `CCOc1ccc(C(=O)Nc2ccc(C(=O)OCc3cc(=O)n4c(C)csc4n3)cc2)cc1`, with inactive: -17.8%.
The same measure for `CCOCCCNC(=O)C(c1ccc(Cl)cc1)N(Cc1ccc2c(c1)OCO2)C(=O)c1ccc(NC(C)=O)cc1` (centres undefined): inactive: -7.07%; for `COc1ccc(NC(=O)C(=O)NCc2ccco2)c(OC)c1`: inactive: -2.44%.
As for `COc1ccc(N2CCN(c3oc(/C=C/c4ccccc4OC)nc3C#N)CC2)cc1`, the activation was inactive: -35%.
The same measure for `CC(C)Oc1ccc(CNC(=O)c2cccc(NC(=O)c3nsc4ccccc34)c2)cc1`: inactive: -16.5%; for `COc1ccc(OC)c(CNC(=O)C2CCN(S(=O)(=O)c3ccc4[nH]c(=O)oc4c3)CC2)c1`: inactive: -5.58%; for `Cc1cc(C)cc(NC(=O)N2CCC(N3CCN(Cc4ccccc4)C(=O)C3=O)CC2)c1`: inactive: -18.8%.
Consider `O=C(Nc1ccc(C(=O)OCc2cc(=O)n3ccsc3n2)cc1)c1cccc(F)c1`, for which the activation is inactive: -9.75%.
For the molecule `CCOc1ccc(CC(=O)Nc2c(C(=O)c3ccc(F)cc3)oc3ccc(Cl)cc23)cc1OCC`, the activation is inactive: -2.33%.
On to `Cc1ccc(CNC(=O)c2c[nH]n3c(=O)c(Cc4ccc(F)cc4Cl)c(C)nc23)cc1`, for which the activation was inactive: 6.26%.
For `Cc1nnc(N2CCN(c3cccc(C(F)(F)F)c3)CC2)c2c1nnn2Cc1ccccc1`, the activation was inactive: -0.768%.
The same measure for `Cn1c(C(=O)N2CCC(C(=O)N3CCN(c4ccccc4)CC3)CC2)cc2sccc21`: inactive: 1.63%; for `COc1ccc(N2Cc3cccc(C(=O)Nc4cccc(F)c4)c3C2=O)cc1`: inactive: -2.05%.
As for `Cc1cc(NC(=O)C2CCCN(S(=O)(=O)c3cn(C)cn3)C2)ccc1Br` (centres undefined), the activation was inactive: -0.353%.
As to `Cc1ccc(-c2cc(NC(=O)C(C)Oc3ccccc3F)on2)cc1` (centres undefined), the activation is inactive: -3.71%.
Then `CN(C)c1ccc(C(=O)Nc2ccc(-c3nc4ccccc4o3)cc2)cc1`, with inactive: -11%; and `Cc1noc2ncnc(NCc3ccc(Cl)cc3)c12`, with inactive: 32.4%.
Then `Clc1ccccc1-c1nnc(SCc2nc(-c3ccccc3)no2)n1-c1ccccc1`, with inactive: 49.9%; and `O=C(NCCc1ccc(Cl)cc1)c1ccc(CSCc2ccc(Cl)cc2)o1`, with inactive: -20%.
Regarding `COc1ccc(N2CCN(C(=O)Nc3ccccc3Cl)CC2)cc1`, the activation is inactive: -1.39%.
Then `COc1ccc(Cn2c(CCC(=O)Nc3ccc(OC)c(Cl)c3)nc3cccnc32)cc1`, with inactive: 4.67%; and `CCOc1ccc(NC(=O)CCC(=O)N2CCSc3ccccc32)cc1`, with inactive: -8.67%.
The same measure for `CCCC(=O)n1nc(-c2cccnc2)nc1NCc1ccccc1`: inactive: -20.7%.
The same measure for `CCc1ccccc1NC(=O)Cn1c(=O)n(CCc2ccccc2)c(=O)c2ccccc21`: inactive: -12.2%.
Consider `O=C(Nc1ccc2nc(SCC(=O)N3CCOCC3)sc2c1)c1cccc(F)c1`, for which the activation was inactive: -6.83%.
Then `COc1ccc(NS(=O)(=O)c2c(C)nc3scc(C)n3c2=O)cc1`, with inactive: 14.2%.
For the molecule `CCCCNC(=O)CCSc1nc(-c2ccc3c(c2)OCO3)cc(C(F)(F)F)n1`, the activation was inactive: 10.6%.
Then `CCOC(=O)N1CCN(S(=O)(=O)N2CCCC(C(=O)NCc3ccc(OC)cc3OC)C2)CC1` (centres undefined), with inactive: -11.4%; and `O=c1oc2ccc(Cl)cc2cc1-c1cn2c(n1)sc1ccccc12`, with inactive: -2.22%; and `COc1cccc(NC(=O)CSC2=Nc3ccccc3C3=NC(CC(=O)NCc4ccccc4OC)C(=O)N23)c1` (centres undefined), with inactive: 1.68%.
Then `OC[C@@H](O)[C@H](O)[C@H](O)[C@@H](O)CO`, with inactive: -24.6% and inactive: -15%.
On to `COC(=O)c1scc(-c2ccccc2)c1S(=O)(=O)Nc1ccc(C)c(Cl)c1`, for which the activation is inactive: -7.34%.
The same measure for `CCOc1ccc(NC(=O)c2c(NCc3cccs3)sc3c2CCCCC3)cc1`: inactive: -7.83%; for `Cc1ccnc2nc(NC(=O)c3ccccc3Cl)nn12`: inactive: -3.34%.
The same measure for `Cc1cccc(OCC(=O)N(Cc2ccc(N(C)C)cc2)Cc2ccco2)c1C`: inactive: -14.5%; for `COc1ccc(C2C=C(c3ccccc3)Nc3nc(NC(=O)/C=C/c4ccccc4OC)nn32)cc1` (centres undefined): inactive: -17.4%.
The same measure for `CCC(=O)N1CCc2cc(Br)cc(S(=O)(=O)N3CCCC(C(=O)Nc4ccc(OC)cc4OC)C3)c21` (centres undefined): inactive: 2.1%; for `Cc1cccc(N(CC(=O)N(C)Cc2ccccc2)S(=O)(=O)c2ccccc2)c1C`: inactive: 22.4%; for `CCc1ccc(S(=O)(=O)c2nnn3c2nc(NC(C)C)c2cc(Cl)ccc23)cc1`: inactive: -18.1%.
As to `CC1CCc2cc(F)cc3c(=O)c(C(=O)O)cn1c23` (centres undefined), the activation is inactive: -40.3%.
`COc1ccccc1CNC(=O)c1ccc(CS(=O)c2ccccc2Cl)o1` (centres undefined): the activation is inactive: -16.7%.
The same measure for `CC12CN3CC(c4ccccc4)(CN(C1)C3c1ccc(Cl)cc1)C2=O` (centres undefined): inactive: 8.63%.
Then `CC(=O)c1cc(-c2ccccc2)n(CCC(=O)NC2CCCCC2)c1C`, with inactive: -9.95%; and `O=C(NCC1CCCCN1)c1cc(OCC(F)(F)F)ccc1OCC(F)(F)F` (centres undefined), with inactive: -6.81%.
On to `CCc1ccc(NC(=O)C2CCN(S(=O)(=O)c3c(C)noc3C)CC2)cc1`, for which the activation was inactive: -8.42%.
The same measure for `CCCCOc1ccc(OCCCN2CCOCC2)cc1`: inactive: 3.77%.
Take `CCC(=O)Nc1ccccc1-c1nc2ccccc2n(CC(=O)Nc2ccc(C)c(C)c2)c1=O`: the activation is inactive: 5.07%.
Turning to `COc1ccc(C2=NN(CC(=O)NCCc3ccccc3)C(=O)CC2)cc1`, the activation is inactive: -22.5%.
For `Cn1c(=O)c2cc(C(=O)Nc3cccc(C#N)c3)sc2c2ccccc21`, the activation is inactive: 10.2%.
For `COC(=O)c1ccc(NC(=O)NC(C)c2c(-n3cccc3)sc(C)c2C)cc1` (centres undefined), the activation is inactive: -21.6%.
Then `O=C(NC1CCCC1)c1ccc(CSc2nc3cccnc3n2Cc2ccccc2)cc1`, with inactive: -3%; and `COc1ccc(CCNC(=O)CSCc2nc(-c3cccc(C)c3)oc2C)cc1OC`, with inactive: 4.99%.
Then `O=C(NCc1ccccc1)c1ccc2c(c1)N(Cc1ccc(F)cc1)CCS2`, with inactive: -21.1%; and `COc1ccc(Cl)cc1NC(=O)c1sc2nc(-c3ccc(OC)c(OC)c3)ccc2c1N`, with inactive: 8.56%; and `O=C(COc1ccc(Cl)cc1)Nc1ccc(-c2nc3cc(Cl)ccc3o2)c(O)c1`, with inactive: -14.2%.
Consider `COC(=O)c1sc2cccc(F)c2c1S(=O)(=O)Nc1cc(C)c(Cl)cc1OC`, for which the activation is inactive: -18.1%.
The same measure for `CCc1cccc(C)c1NC(=O)CN1C(=O)c2ccccc2Sc2ncccc21`: inactive: -7.03%; for `CCCNC(=O)C1CCC(Cn2c(=O)c3sccc3n(CC(=O)N3CCCC3)c2=O)CC1` (centres undefined): inactive: -1.26%; for `CN[C@@H]1[C@@H](O)[C@@H](O[C@@H]2[C@H](O)[C@H](O[C@H]3OC(CN)=CC[C@H]3N)[C@@H](N)C[C@H]2N)OCC1(C)O` (some centres undefined): inactive: -8.78%.
The same measure for `COc1ccc(CNC(=O)c2cc3oc4ccccc4c3n2C)cc1OC`: inactive: 3.55%.
For the molecule `CCCNC(=O)CN1C(=O)c2c(c3ccccc3n2C)C1c1ccc(OC)cc1` (centres undefined), the activation is inactive: -16.5%.
Consider `Cc1c(C(=O)Nc2cccc(C#N)c2)sc2nc3n(c(=O)c12)CCCCC3`, for which the activation is inactive: 3.44%.
Then `CCc1ccc(S(=O)(=O)c2nnn3c2nc(N2CCC(C(N)=O)CC2)c2cc(Cl)ccc23)cc1`, with inactive: -25.5%; and `CCOC(=O)c1ccc(N2C(=O)c3n[nH]c(-c4cccs4)c3C2c2ccc(OC)cc2OC)cc1` (centres undefined), with inactive: -7.19%.
